T1: UNK ZnF1-3 (human, UniProt Q9C0B0 31-174)
T1 sequence: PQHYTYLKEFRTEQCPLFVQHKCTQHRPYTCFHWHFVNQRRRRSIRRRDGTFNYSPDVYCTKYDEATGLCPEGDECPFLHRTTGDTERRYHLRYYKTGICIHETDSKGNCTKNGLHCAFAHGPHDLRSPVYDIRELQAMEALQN

B1: 113297594_113297714_12607_3pUTR_ENSG00000114999_ENST00000233336|human|control|control (ssRNA)
RNA: GGGAGUUCUACAGUCCGACGAUCAAAGAAGGCUGAGAUUCUUGAUCAGGAUUGUGUUCAAUUGGUAGAUCAAUUUGGGGCCUAUUUUCAUCCUAACAAUAAUUAUCUCCCAAUCCAUAAACAUGGGAUGUCUUUCCAUUUAUUCAACAGAGGAUUGAGCAUCA
B2: chr2:9570881:9570882:+_ENSG00000119203_ENST00000238112|hu_hu|motif|central (ssRNA)
RNA: GGGAGUUCUACAGUCCGACGAUCACUUGUCUUCUGUAGAAACCAGGGCAGAGCUCCACAGUGAUCCAAAUGGAAAUGACGGAUUAAUAGGAGAUCAAUCUCAGCUGGGUCAAUUAAAUCAAUAUAAGGAAGAGCAUCCAUUCCCAACAGAGGAUUGAGCAUCA
B3: chr17:23954396:23954397:+_ENSMUSG00000039218_ENSMUST00000088621|mus_mus|motif|central (ssRNA)
RNA: GGGAGUUCUACAGUCCGACGAUCCUCUUUUAAUUCAGAAGGCUCCAAUCUGCUCUGCACCAGAAAAGAUUUAGAGUCGGCGGAAGGAUAUAUGCUAGAGUCAGGUUUAGUCUUACUCUGCUCAGGAGACAUUCCUGACUUCAGCAACAGAGGAUUGAGCAUCA
B4: chr17:35971825:35971826:-_ENSMUSG00000001525_ENSMUST00000001566|mus_mus|FALSE|FALSE (ssRNA)
RNA: GGGAGUUCUACAGUCCGACGAUCUGAGUGCCUGCCAUGUGCCAGGCACCAUUUACCCCCAAUGAGAAAACAGAACAAAACAAAUACAAGACAGAGGCAGCAGAAAGAAACUGGAGGACAAAGGGCAGUUGGAGAAAGCUGAGGCAACAGAGGAUUGAGCAUCA
B5: chr1:82408827:82408828:+_ENSG00000117114_ENST00000319517|hu_hu|FALSE|FALSE (ssRNA)
RNA: GGGAGUUCUACAGUCCGACGAUCAUCUACUCGAUUUGGAAGUUUAUAUGUUGUUGUUUGGCGACUAUUUUGGAAAUCUUCUAAAGAAGCAUAUUCUAUUAAAGUAUCGGUACGAUAGGGAGUCCAGGGCAUGAAAUAAAUUUUCAACAGAGGAUUGAGCAUCA
B6: chr6:38489255:38489256:+_ENSMUSG00000019689_ENSMUST00000019833|mus_hu|motif|central (ssRNA)
RNA: GGGAGUUCUACAGUCCGACGAUCACGAGUUGUAUCUCCCUUGCCAUGAAAUUCCUGAUGUAGGGCCACAUGUUUCCGGAUGCGGCGCAGGAGGCAGAGAUAGGUGGCAGCUUGGAAAUGAAGCUCAUGUUGGGCUCUGCACAACAACAGAGGAUUGAGCAUCA
B7: 110453951_110455679_4471_CDS_ENSMUSG00000044791_ENSMUST00000153838|mouse|control|control (ssRNA)
RNA: GGGAGUUCUACAGUCCGACGAUCUCUUUCAUCCUUAGAAAGAGGUGUACACUCACACUGCAUUCGCUUAAUAUCCCGGUGGGAUUUGUUCUUCUUCCUUUCUGUUAAAUAAACAUUUUCUUCAAUAAGAUCAAAGUAACAUGGCAACAGAGGAUUGAGCAUCA
B8: 140882688_140882808_658_ncRNA_ENSMUSG00000030979_ENSMUST00000135760|mouse|control|control (ssRNA)
RNA: GGGAGUUCUACAGUCCGACGAUCAACUCUGCCUGAACAUGGUCACGUCUGCCUCCUGGGUCUCAGGACCAUCUUUAGAGGUGUCCUUAGCUAAUUCUAGUCACCUUUGUCCUUGAGCAUUUUUGGAAGAGUAUCUCCUUUGAUCAACAGAGGAUUGAGCAUCA
B9: chr11:78564483:78564484:-_ENSMUSG00000049489_ENSMUST00000059468|mus_mus|motif|central (ssRNA)
RNA: GGGAGUUCUACAGUCCGACGAUCAAUCUGAAUGAGAUCAGACACAAUAUUGUCAAUGAUUGGCUUGGUAAGGUCAUCACGGAAUACCUGCCACCAAGGCUUCUCGGCCUCACCCUCUGCAGGCACCUCGACUCCAUAGACCUGCAACAGAGGAUUGAGCAUCA
B10: chr11:86546118:86546119:-_ENSMUSG00000047126_ENSMUST00000103186|perfect_dup|FALSE|FALSE (ssRNA)
RNA: GGGAGUUCUACAGUCCGACGAUCUGCAAAACAAAAUAACGUUGAUUCUUCUGCAUUUCCUUCCAUCUUAAACUGUGCAAAGCUAGCUGCAUGUCCUUCAAUGGGCUGAGACACUUUCCUAUCUACAGAAUAUAGCUGCAUAGCCAACAGAGGAUUGAGCAUCA
B11: chr2:47387792:47387793:-_ENSG00000143933_ENST00000272298|hu_hu|hu_hu_hu_mus_True|1_8 (ssRNA)
RNA: GGGAGUUCUACAGUCCGACGAUCUAAGGACAAUGACAGUAAGAUAAGGGAAGAAAACAUGGAGGAAUGAAGUCCUAAUUACUAUACAUGCAUAUUUUUUGACAGUAGGGGGGGGGAACCUUUUACAUAAGUUACAAACAAAGACAACAGAGGAUUGAGCAUCA
B12: 61440021_61440141_3660_3pUTR_ENSG00000126814_ENST00000261249|human|control|control (ssRNA)
RNA: GGGAGUUCUACAGUCCGACGAUCCAUAGCACUGGCAUCUGCUUCUGGGGAAGCCUCAGGAAGCUUUUACUCAUGGUAGAAGGCAAAAUAGGAGAAGGCACUUCACAUGGCGAAGGCAGGAGCAAGAGAGUGUGGGGGGCGAGUCAACAGAGGAUUGAGCAUCA
B13: chr11:31955072:31955073:+_ENSMUSG00000020297_ENSMUST00000020537|mus_mus|FALSE|FALSE (ssRNA)
RNA: GGGAGUUCUACAGUCCGACGAUCCUUGUGCUUGUAGACAAAUCCUUCAGGACAGCUGUGGUCAUAGGUAAAGGCUUUGUAAACCACCAGGAACACAAUGCAAGCAAGGAAGGCAAGGGCCAGGCUGACAAGAAUGGUGACCGUCAACAGAGGAUUGAGCAUCA
B14: chr4:17845017:17845018:+_ENSG00000109805_ENST00000514176|hu_mus|hu_hu_hu_mus_False|68_68 (ssRNA)
RNA: GGGAGUUCUACAGUCCGACGAUCGCUCUCUUAACUUGUAUCUUCAUUAAGGAACUCUGCAAGGUUAGUUUACUUUUUCUGUAGCGCAGCUGUUUUGGCUCGUCUGGGUAAUCUCAUCUUCAUUUCUGAUGGUGGUUCAUGAUCCAACAGAGGAUUGAGCAUCA
B15: chr9:90322654:90322655:+_ENSG00000196730_ENST00000408954|hu_mus|FALSE|FALSE (ssRNA)
RNA: GGGAGUUCUACAGUCCGACGAUCUUUCUUUCUUUCCUUAUUUCUUCCUUUCUUUUUCUUUUUUUUUUUUCUUUUUUGAUAAGGAUAAUCAAUAAAGGAGUUAAAUUGUUUUCAUCGAAAAGUUUGGAAUCUCAAUAAAAUUAUCAACAGAGGAUUGAGCAUCA
B16: chr16:11966626:11966627:-_ENSG00000103342_ENST00000563468|hu_hu|motif|central (ssRNA)
RNA: GGGAGUUCUACAGUCCGACGAUCUUGUAACAUGUGCACACACACUCGCACACUCAGAAUGAUCUGCCUGGGGGAAAAAUACGGAAUAUGCCUAAGGGGAAAAUGAAAAAUAAAAAAAUUCCUGUAGGUUUUCAUUAUUGUAGGCAACAGAGGAUUGAGCAUCA
B17: chr8:30643436:30643437:-_ENSG00000104695_ENST00000221138|hu_hu|FALSE|FALSE (ssRNA)
RNA: GGGAGUUCUACAGUCCGACGAUCUUUUCUUAAAAAUAAAACUCCAACUCUAUUAAUCCAUGCCAGUUAAACACUAUAACUAAAAUUUCCAAAUAAGCGCAAAAGGAGAUGAAGCAGUUAGUUACCUUUUUUGCUUGAACAGUCCAACAGAGGAUUGAGCAUCA
B18: chr17:65740002:65740003:+_ENSG00000130935_ENST00000581375|hu_hu|hu_hu_hu_mus_False|48_68 (ssRNA)
RNA: GGGAGUUCUACAGUCCGACGAUCAACAAAUCUUUCUUCCCUGGACGAACAGGAAGAUUCAUAUUAACUUUAUAAAAUAUCCAUCAAGGAGAAUUGAGUGGCCACACCUUUACUCCCAGCACUUUGGGAGGUGGAUCUCUGAGUCAACAGAGGAUUGAGCAUCA
B19: chr8:95500983:95500984:-_ENSG00000164944_ENST00000437199|hu_hu|hu_hu_hu_mus_True|58_98 (ssRNA)
RNA: GGGAGUUCUACAGUCCGACGAUCAGAACACAUCUAUUCGUGUAAAGACCGUACAUGACGGCCUCUACCACUGCCUCCCACUAACAACUUUCCUCUCGAGCCUCCACUGCCGCUAUUUGUACUAGCCCAGGACGGUCCCAGGCCCAACAGAGGAUUGAGCAUCA
B20: 55214808_55276974_766_CDS_ENSG00000115310_ENST00000317610|human|control|control (ssRNA)
RNA: GGGAGUUCUACAGUCCGACGAUCGUCUCUCCAGUACAGGAGGUCAACAACCACUGAGCCCGAGGAGCCCCUGCGCUUGGGCGCGGCCGGGGUGGAGGGGGGCGCGGCGGGAGCCGGGGCUGGCGGGGUCCACACGGGCUCUGCCAACAGAGGAUUGAGCAUCA
B21: chr1:150549822:150549823:-_ENSG00000143384_ENST00000369026|hu_mus|FALSE|FALSE (ssRNA)
RNA: GGGAGUUCUACAGUCCGACGAUCUAAAUACACAUGUUUUCACAGAUGCAUGUAGUUUGGUGGCUGGAGCUUUAAGAGUCCCCUAUUGCACUCACAAGGCUAUCUUAUUAGAUAUGCCAGACCAGCCCCUACUCCAGCAACACCCAACAGAGGAUUGAGCAUCA
B22: chr11:87793471:87793472:-_ENSMUSG00000020483_ENSMUST00000020775|mus_mus|mus_mus_mus_hu_False|1_78 (ssRNA)
RNA: GGGAGUUCUACAGUCCGACGAUCUGGACUUGAAAAUAAAAGAAUAAGCUGGAUCCCCCCACCCCUUACAUUGUCAACCCUACACGAGAGUUUUGAAGGCGACUCAUGAAAAUCAGCAGCUCAAACGGCAAUGACCACCCACCCCAACAGAGGAUUGAGCAUCA

This is one part of the list.

The test concerns the target T1, UNK ZnF1-3. Briefly: nsRBNS (natural sequence RNA bind-n-seq); RBNS binding buffer (assumed for nsRBNS): 25 mM Tris pH 7.5, 150 mM KCl, 3 mM MgCl2, 0.01% Triton X-100, 500 ug/ml BSA, 20 U/ml SUPERase-In, 4 C; UNK is unkempt and MSI1 is Musashi-1; names of the RNAs are library labels; protein concentration not given here; high values mean tight binding.
In turn, B1 returned a binding signal of 0.825 enrichment R. The result for B2 reads 2.73 enrichment R; that for B3, 0.723 enrichment R; that for B4, 2.41 enrichment R. As for B5, the figure is 1.04 enrichment R; as for B6, 0.842 enrichment R.

B7 registered a binding signal of 1.12 enrichment R. As for B8, the figure is 0.684 enrichment R; as for B9, 0.685 enrichment R; as for B10, 1.27 enrichment R. The result for B11 reads 2.1 enrichment R; that for B12, 2.06 enrichment R; that for B13, 1.49 enrichment R. The result for B14 reads 0.425 enrichment R. B15 displayed a binding signal of 0.859 enrichment R.

Take B16: the binding signal is 2.8 enrichment R. As for B17, the binding signal is 1.2 enrichment R. As for B18, the figure is 1.57 enrichment R; as for B19, 0.985 enrichment R; as for B20, 0.674 enrichment R. For the molecule B21, the binding signal is 0.637 enrichment R. With B22, the binding signal was 2.13 enrichment R.

(Values after paper PMC12136788.)
